# The list shows a part of the results.
# Experiments:
# HSkMC = human skeletal muscle cells; assay: cytotoxicity call (relative viability < 0.9); settings: 10 µM
# HepG2 = assay: cytotoxicity call (relative viability < 0.9); settings: 10 µM
# S. aureus RN4220 = assay: growth inhibition call (relative growth <= 0.2); settings: 50 µM
SMILES,cytotoxicity call (HSkMC),cytotoxicity call (HepG2),growth inhibition call (S. aureus RN4220)
Cc1c2c(nn1C)CSCc1cc(n(C)n1)CSc1cc(c3ccccc3c1)OCCCc1c(C(=O)O)n(C)c3c-2c(Cl)ccc13,inactive,inactive,active
O=C(NCCN1CCOCC1)[C@]1(Cc2ccccc2)N=C(c2ccc(OCCCO)cc2)O[C@@H]1c1ccccc1,inactive,inactive,inactive
Cc1cc(C)n2nc(SCC(=O)O)nc2n1,inactive,inactive,inactive
CC(=O)c1ccc(S(=O)(=O)NC(=O)NC2CCCCC2)cc1,inactive,inactive,inactive
Cc1ccc(NC(=O)c2ccc(CN3CCN(C)CC3)cc2)cc1Nc1nccc(-c2cccnc2)n1,inactive,inactive,inactive
C[C@@H]1CN([C@@H](C)CO)S(=O)(=O)c2ccc(-c3ccncc3)cc2O[C@@H]1CN(C)Cc1ccc(Oc2ccccc2)cc1,inactive,inactive,inactive
CN(C)C(=O)CN1CCN(C)C(=O)[C@]12CCN(c1ncc(F)cn1)C2,inactive,inactive,inactive
CNC(=O)c1cnc2n1CCN(Cc1nccn1C)C2,inactive,inactive,inactive
C[C@@H]1CN([C@H](C)CO)C(=O)c2cccc(NC(=O)c3ccncc3)c2O[C@H]1CN(C)Cc1ccc(-c2ccccc2)cc1,inactive,inactive,inactive
C=C(C)[C@@H]1CC[C@]2(COC(C)=O)CC[C@]3(C)[C@H](CC[C@@H]4[C@@]5(C)CC[C@H](OC(C)=O)C(C)(C)[C@@H]5CC[C@]43C)[C@@H]12,inactive,inactive,inactive
Cc1ccc(S(=O)(=O)N(C)C[C@H]2Oc3c(NS(C)(=O)=O)cccc3C(=O)N([C@H](C)CO)C[C@H]2C)cc1,inactive,inactive,inactive
O=C(Cc1ccccn1)NCC[C@H]1CC[C@H](NC(=O)CN2CCOCC2)[C@H](CO)O1,inactive,inactive,inactive
COc1cccc(C#Cc2ccc3c(c2)O[C@H](CN(C)C(=O)CN2CCOCC2)[C@H](C)CN([C@@H](C)CO)S3(=O)=O)c1,inactive,inactive,inactive
CCNC(=O)[C@@H]1[C@@H](CO)[C@@H]2Cn3c(ccc(-c4ccccc4OC)c3=O)[C@@H]2N1S(C)(=O)=O,inactive,inactive,inactive
C=CC(=O)NS(=O)(=O)c1ccccc1,inactive,inactive,inactive
CO[C@@H]1CN(C)C(=O)c2ccc(NC(=O)C3CCOCC3)cc2OC[C@@H](C)N(C(=O)C2CCOCC2)C[C@H]1C,inactive,inactive,inactive
COc1ccc(S(=O)(=O)Nc2ccc3c(c2)C(=O)N([C@@H](C)CO)C[C@H](C)[C@@H](CN(C)Cc2ccncc2)O3)cc1,inactive,inactive,inactive
COc1ccc(NC(=O)N(C)C[C@@H]2Oc3c(NC(=O)C4CCOCC4)cccc3C(=O)N([C@@H](C)CO)C[C@@H]2C)cc1,inactive,inactive,inactive
Cc1noc(C)c1NC(=O)Nc1ccc2c(c1)C(=O)N([C@@H](C)CO)C[C@@H](C)[C@H](CN(C)Cc1ccncc1)OCCCC[C@H](C)O2,inactive,inactive,inactive
COc1ccc(S(=O)(=O)N(C)C[C@@H]2OCCCC[C@@H](C)Oc3ccc(NC(=O)Nc4ccccc4)cc3C(=O)N([C@H](C)CO)C[C@@H]2C)cc1,inactive,inactive,inactive
CN([C@@H](c1ccccc1)c1ccccn1)S(=O)(=O)c1cn(C)c(=O)n(C)c1=O,inactive,inactive,inactive
C[C@@H]1CCCCO[C@H](CN(C)Cc2ccccc2)[C@@H](C)CN([C@H](C)CO)C(=O)c2cc(NC(=O)Nc3ccc4c(c3)OCO4)ccc2O1,inactive,inactive,inactive
Cc1ccc(S(=O)(=O)Nc2ccc3c(c2)C(=O)N([C@@H](C)CO)C[C@@H](C)[C@H](CN(C)C(=O)Cc2ccccc2)OCCCC[C@@H](C)O3)cc1,inactive,inactive,inactive
C[C@H]1CN(C)C(=O)c2cc(NS(C)(=O)=O)ccc2O[C@H]1CN(C)S(C)(=O)=O,inactive,inactive,inactive
Cc1noc(C)c1NC(=O)Nc1ccc2c(c1)C(=O)N([C@H](C)CO)C[C@H](C)[C@H](CN(C)C(=O)Nc1ccc(C(F)(F)F)cc1)OCCCC[C@@H](C)O2,inactive,inactive,inactive
CC(=O)Oc1ccccc1C(=O)Nc1ncc([N+](=O)[O-])s1,active,active,active
COc1cccc2c1C(=O)c1c(O)c3c(c(O)c1C2=O)CC(O)(C(=O)CO)CC3OC1CC(N)C(O)C(C)O1 (stereo unspecified),active,active,inactive

# — the antibiotic and cytotoxicity screens of Wong et al. (2023)
